From PubChem BioAssay AID686979 (National Center for Advancing Translational Sciences (NCATS), 2013)
Where “and” joins values, the source holds several entries; their conditions need not be identical. Equal values may be shown once. In all, about 420,000 compounds went through this assay and about 50,000 (12%) were called active. The inconclusive results got no clear call from the source; some entries with a clear call stand among them for comparison. Calls come from the whole dose curve; as a rule, active = well fitted inhibition curve with a large enough effect; inconclusive = small, poorly fitted or top-dose-only effect; inactive = flat fitted curve, though single readings scatter. Potencies of inconclusive entries are doubtful fits and often do not repeat.

Assay: qHTS for Inhibitors of human tyrosyl-DNA phosphodiesterase 1 (TDP1): qHTS in cells in presence of CPT; note: nearly all actives have a fitted effect of over 55% in size
Settings: chicken DT40 Tdp1-/-;hTDP1 cells + 20 nM CPT, ATP luminescence, 48 h; activity change, negative = growth inhibition: at 46.2 µM (top of the series) unless noted
In short: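 Chicken DT40 Tdp1-/- cells complemented with human TDP1, 400 cells/well, exposed to compounds plus 20 nM camptothecin for at least 48 h at 37 C; viability read as ATP content by CellTiter-Glo luminescence.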
% is set by controls: 0 for no effect and ±100 for the full control effect; potency is the fitted concentration of half-maximal effect; tags give direction and shape of the fitted curve.

SMILES | activity change, negative = growth inhibition | Potency
CCOC(=O)c1c(NC(=O)COC(=O)c2ccc(Cl)nc2)sc(C(=O)N(C)C)c1C | inactive: 4.63% | 
Cc1cccc(N2CCN(S(=O)(=O)c3ccc4c(c3)NC(=O)C(C)S4)CC2)c1C (stereo not drawn) |  | active: 20.6 µM
O=C(Cn1ncc2c3ccccc3n(Cc3ccccc3F)c2c1=O)NCCc1ccc(Cl)cc1 |  | inconclusive: 5.8 µM [inhibitor, single point]
CC(NC(=O)c1cnccn1)c1ccc(S(N)(=O)=O)cc1 (stereo not drawn) |  | inconclusive: 18.4 µM [inhibitor, single point]
CCN(C(=O)C=Cc1ccco1)c1ccccc1 |  | inconclusive: 29.1 µM [inhibitor, single point]
CC1=NN(C(=O)c2ccc(Cn3cc(Br)c([N+](=O)[O-])n3)o2)C(O)(C(F)(F)F)C1 (stereo not drawn) |  | active: 3.26 µM
C(C#CCCCCCCCCC[n+]1ccccc1)#CCCCCCCCCC[n+]1ccccc1 |  | active: 2.31 µM and active: 3.26 µM
CCOC(=O)c1c(C)[nH]c(C)c1S(=O)(=O)N1CCCC(C(=O)Nc2ccc(OC)c(Cl)c2)C1 (stereo not drawn) | inactive: -2.14% | 
Cc1cc2occ(CC(=O)N(C)CC(=O)Nc3ccccc3Br)c2cc1C | inactive: -0.78% | 
CC(C)Nc1nc(Nc2ccc(F)cc2)c2sccc2n1 |  | active: 25.9 µM
Cc1c(-c2nn(C)c(=O)c3ccccc23)oc2ccc(F)cc2c1=O |  | inconclusive: 29.1 µM [inhibitor, single point]
COc1ccc(NC(=O)CN2C(=O)NC3(CC(C)CC(C)(C)C3)C2=O)cc1S(=O)(=O)N1CCCCC1 (stereo not drawn) |  | inconclusive: 29.1 µM [inhibitor, single point]
Cn1c(=O)cnc2cnc(OCc3ccccc3)nc21 | inactive: -2.47% | 
COCCCNC(=O)Cn1cc2c(n1)CCC(C)C2 (stereo not drawn) | inactive: 3.9% | 
COc1cccc(CNC(=O)CSc2c3c(nc4ccc(Cl)cc24)CCCC3)c1OC |  | active: 7.31 µM
Cc1ccc(C(=O)NCC(=O)N/N=C/c2sccc2C)cc1[N+](=O)[O-] |  | inconclusive: 25.9 µM [inhibitor, single point]
COc1cc(CN(C)c2ccc(S(=O)(=O)N3CCCC3)cn2)ccc1OC(F)F |  | inconclusive: 25.9 µM [inhibitor, single point]
O=C(c1cc(-c2ccc(Br)cc2)nc2ccccc12)N1CCC1 |  | inconclusive: 14.6 µM [inhibitor, partial curve]
Cc1sc2nc(C3CC3)nc(N3CCN(C(=O)c4ccccc4F)CC3)c2c1C |  | inconclusive: 29.1 µM [inhibitor, single point]
O=C(Nc1ccccc1)c1sc2cc(C(F)(F)F)cnc2c1-c1cccs1 |  | active: 13 µM
Cc1ccc(OCCn2cc(/C=C(\C#N)C(=O)NCC3CCCO3)c3ccccc32)cc1C (stereo not drawn) |  | active: 13 µM
COc1cc(CNc2ncc(-c3ccc(Br)cc3)n2C)cc(OC)c1OC |  | active: 10.3 µM
CCc1ccc(NC(=O)c2cc3sc(Cl)cc3n2C)cc1 |  | inconclusive: 10.3 µM [inhibitor, single point]

SMILES | activity change, negative = growth inhibition | Potency
CC1=C(C(=O)Nc2ccc(C)cc2C)C(c2ccc(Cl)cc2)n2nc(C(=O)OC(C)C)nc2N1 (stereo not drawn) |  | inconclusive: 18.4 µM [inhibitor, partial curve] and inconclusive: 3.66 µM [inhibitor, partial curve]
CCCCCCSc1ccc(-c2nc3ccc(Cl)cn3c2NCCCC)cc1OC |  | inconclusive: 33.2 µM [inhibitor, single point] and inconclusive: 29.1 µM [inhibitor, single point]
Cn1c(CC(=O)NNC(=O)c2ccc(F)cc2F)nc2ccccc21 |  | inconclusive: 23.1 µM [inhibitor, single point]
COc1ccc(NC(=O)N2CCN(c3nc4ccccc4n3C(C)C)CC2)cc1 |  | inconclusive: 18.4 µM [inhibitor, single point]
Cc1cccc(N2CCN(C(=O)C3CCN(S(=O)(=O)c4cccs4)CC3)CC2)c1C |  | active: 20.6 µM
COc1ccc(CN2COc3ccc4c(-c5ccccc5)cc(=O)oc4c3C2)cc1 |  | inconclusive: 25.9 µM [inhibitor, single point]
CC(=O)Nc1cccc(OCC(O)Cn2c(C)nc3ccccc32)c1 (stereo not drawn) |  | inconclusive: 20.6 µM [inhibitor, single point]
c1ccc2nc(N3CCCC3)c(N3CCCC3)nc2c1 | inactive: -5.04% | 
Cc1nc(N2CCCCC2)c2c(-c3cccs3)csc2n1 |  | inconclusive: 18.4 µM [inhibitor, single point]
O=C(NCC(=O)N1CCC(Cc2ccccc2)CC1)c1ccccc1F |  | inconclusive: 13 µM [inhibitor, partial curve]
COc1ccc2c(c1)c(/C=N/Nc1ccc(C(=O)O)cc1)c(C)n2C | inactive: 10% | 
Cn1c(/C=C/c2ccc(Cl)cc2)c([N+](=O)[O-])c(=O)n(C)c1=O |  | inconclusive: 18.4 µM [inhibitor, single point]
CCN(CC)C(=O)C1CCCN(Cc2cccc(F)c2)C1 (stereo not drawn) | inactive: -1.22% | 
Cc1ccccc1Nc1nnc(-c2ccc(C)c(S(=O)(=O)N3CCOCC3)c2)c2ccccc12 |  | inconclusive: 29.1 µM [inhibitor, single point]
CC(OC(=O)c1cnc(Cl)c(Cl)c1)C(=O)NCc1ccccc1 (stereo not drawn) |  | inconclusive: 14.6 µM [inhibitor, single point]
Cc1ccc(CCNC(=O)C2CCC(CNc3c(N4CCC(C)CC4)c(=O)c3=O)CC2)cc1 (stereo not drawn) |  | inconclusive: 29.1 µM [inhibitor, single point]
CCOC(=O)c1cc2c(=O)n3ccccc3nc2n(C(C)C)c1=NC(=O)c1c(-c2ccccc2Cl)noc1C |  | inconclusive: 25.9 µM [inhibitor, single point]
O=C(CCCCCN1C(=O)c2cccc3cccc(c23)C1=O)NCCO | inconclusive: -32.5% [inhibitor] | 
COc1c(C)cc(C(O)c2ncc(-c3ccccc3Cl)[nH]2)cc1C (stereo not drawn) | inactive: -24.8% | 
CCN(CC)S(=O)(=O)c1ccc(N(C)Cc2cccc(OC)c2OC)nc1 |  | active: 23.1 µM
CC1=NN(c2ccccc2)C(=O)/C1=C\c1cn(-c2ccccc2)nc1C | inconclusive: -36% [inhibitor] | 
N#Cc1ccc(NC2c3ccccc3CC2O)cc1 (stereo not drawn) |  | inconclusive: 16.4 µM [inhibitor, single point]
CSc1ccc(CNc2ncc(-c3cccc([N+](=O)[O-])c3)n2C)cc1 |  | active: 16.4 µM

SMILES | activity change, negative = growth inhibition | Potency
O=C(NCc1ccccc1)C1Cc2c(-c3ccc(Cl)cc3)ccnc2O1 (stereo not drawn) |  | active: 0.651 µM
Cc1[nH]nc2c1C(c1ccccc1)C1=C(CC(C)(C)CC1=O)N2 (stereo not drawn) | inactive: -27.4% | 
COc1cccc(CNC(=O)COC(=O)c2cccc(S(=O)(=O)N3CCCC3)c2)c1 | inactive: -0.0284% | 
Cc1onc(-c2ccccc2Cl)c1C(=O)Nc1nnc(-c2ccc(Br)cc2)s1 |  | active: 16.4 µM
CCCCC(=O)Oc1c(S(=O)(=O)c2ccc(C)cc2)c(C)nn1C(C)(C)C |  | inconclusive: 29.1 µM [inhibitor, single point]
COc1cc2c(cc1Cl)C(=O)C(F)(c1ccccc1)C(=O)N2 (stereo not drawn) |  | inconclusive: 29.1 µM [inhibitor, single point]
CSc1cccc(-c2nnc(NC(=O)c3ccc4c(c3)OCCO4)o2)c1 |  | inconclusive: 20.6 µM [inhibitor, single point]
COc1ccc(S(=O)(=O)N2CCCCCC2)cc1C(=O)N(C)Cc1ccc(OC)c(OC)c1OC |  | inconclusive: 29.1 µM [inhibitor, single point]
C/C(NC(=O)c1ccccc1F)=C1\C(=O)C[C@@H]2[C@H]1C2(C)C |  | inconclusive: 13 µM [inhibitor, partial curve]
COc1ccccc1-c1cc2nc(-c3ccccc3)cc(N3CCN(C(=O)c4ccco4)CC3)n2n1 |  | active: 11.6 µM
COc1ccccc1/C=C/C(=O)N1CCN(S(=O)(=O)c2cc(C)ccc2C)CC1 |  | inconclusive: 29.1 µM [inhibitor, single point]
COc1ccccc1N1CCN(C(=O)C2CCN(C(=O)c3ccccc3Cl)CC2)CC1 | inconclusive: -32.6% [inhibitor] | 
CC(=O)N(C(C)=O)c1nc(-c2ccccc2)cn1/N=C/c1cccc([N+](=O)[O-])c1 | inactive: 2.23% | 
O=C1CCN(CCCc2ccccc2)CCN1[C@H](CO)Cc1ccccc1 |  | inconclusive: 2.91 µM [inhibitor, single point]
COc1ccc2c(c1)OCC(Cc1ccc(OC)c(O)c1)C2=O (stereo not drawn) |  | active: 0.731 µM
Cc1ccnc(NC(=O)c2cccc(NC(=O)c3ccc(Cl)c(Cl)c3)c2)c1 |  | inconclusive: 25.9 µM [inhibitor, single point]
O=C(NCCc1ccc(Cl)cc1)c1cc(-c2ccncc2)nc2ccccc12 |  | inconclusive: 20.6 µM [inhibitor, single point]
COc1ccc(CNc2cccc3[nH]c(C(F)(F)F)nc23)cc1 |  | inconclusive: 29.1 µM [inhibitor, single point]
CN(C)C(=O)COc1ccccc1C(=O)OCC(=O)Nc1ccc(Oc2ccc(Br)cc2)cc1 |  | inconclusive: 22.4 µM [inhibitor, single point]
Nc1c(N(CCC2=CCCCC2)C(=O)COc2ccc(F)cc2)c(=O)[nH]c(=O)n1Cc1ccccc1 |  | inconclusive: 29.1 µM [inhibitor, single point]
Cc1cc(C(=O)N(C)CC(=O)Nc2ccc(Cl)c(C(F)(F)F)c2)no1 | inactive: -25.8% | 
CCN(C(=O)CSc1nnc(Cn2nnc3ccccc32)o1)c1nc(C)cs1 |  | inconclusive: 29.1 µM [inhibitor, single point]
